# About 260 (0.063%) of roughly 410,000 compounds were called active. Inconclusive results, whose numbers are uncertain, are shown with a selection of clear calls. Calls come from the whole dose curve; as a rule, active = well fitted activation curve with a large enough effect; inconclusive = small, poorly fitted or top-dose-only effect; inactive = no such curve, though single readings can be large or run the other way. Potencies of inconclusive entries are left out as doubtful fits.
# Assay: qHTS for compounds that reverse cellular toxicity of Amyloid beta (A-beta) peptide in yeast: Primary Screen; note: nearly all actives have a fitted effect of over 55% in size
# Details: yeast expressing A-beta42, growth rescue, OD600, 48 h; growth rescue: at 46.1 µM (top of the series), 0% DMSO, 100% iron-clioquinol control
# In short: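 Yeast A-beta toxicity model in growth medium with pinned compounds, 48 h at 30 C; growth read as absorbance at 600 nm. Normalized to FeCl3/clioquinol equimolar mix (positive) and DMSO (negative).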
# Potency is the fitted concentration of half-maximal effect; tags give direction and shape of the fitted curve.
SMILES,Potency,growth rescue
O=C1[C@@H]2C(c3ccccc3Cl)=NO[C@@H]2C(=O)N1Cc1ccccc1,"inconclusive [activator, single point]",
COc1ccc(-c2cc(C(F)(F)F)nc(SCC(=O)Nc3cc(C)on3)n2)cc1,inactive,
COc1ccc(CCN(C)C(=S)NC(=O)c2ccc(F)cc2Cl)cc1OC,"inconclusive [activator, partial curve, poor fit]",
CCOC(=O)c1ccc(NC(=S)N2CCCC2)cc1,"inconclusive [activator, single point]",
CCN1CCN(C(c2cccc(F)c2)c2c(O)cc(C)n(Cc3ccco3)c2=O)CC1 (stereo not drawn),"inconclusive [activator, full curve]",
COc1ccc(OC)c(CCNC(=O)c2cnn(-c3ccccc3)c2C2CCN(C(=O)OC(C)(C)C)CC2)c1,inactive,
O=C(Nc1ccc(SC(F)F)cc1)c1ccc2nccnc2c1,"inconclusive [activator, single point]",
O=C(NC1CCCCCCC1)NC1CCCCC1,"inconclusive [activator, single point]",
COCc1cc(C)nc2sc(C(=O)Nc3cc(C)ccc3F)c(N)c12,inactive,
Cc1[nH]c2ccccc2c1SCCNC(=O)c1ccccc1F,active: 14.1 µM,
Cc1c(OCC(=O)C(C)(C)C)ccc2c(-c3ccccc3)cc(=O)oc12,"inconclusive [activator, partial curve]",
C#CC1(O)CCCC2C3CCC4CC(OC(C)=O)CCC4(C)C3C(=O)CC21C (stereo not drawn),"inconclusive [activator, partial curve]",
Cc1ccccc1NC(=S)NC(=O)/C=C/c1ccco1,inactive,
COc1ccc(Cc2c(-c3ccc(C)cc3)nc3c4ccccc4ccn23)c(C)c1,"inconclusive [activator, partial curve]",
CC(C)(C)CC(C)(C)SSc1n[nH]c(=S)s1,"inconclusive [activator, single point]",
COCc1cc(Sc2ccc(Cl)cc2)nc(C)n1,inactive,
O=C(NCc1ccccc1Cl)c1cc2cccc3c2n1CCS3,inactive,
Nc1cccc(S(=O)(=O)Nc2ccc(Br)cc2)c1,"inconclusive [activator, partial curve]",
O=[N+]([O-])c1cc(CN2CCN(c3ccccc3)CC2)c(O)c2ncccc12,"inconclusive [activator, single point]",
CCc1ccc(N2CC(C(=O)N3CCN(c4ccccn4)CC3)CC2=O)cc1 (stereo not drawn),inactive,
COc1cccc(Cl)c1NC(=O)N1CCc2c([nH]c3ccccc23)C1C(F)(F)F (stereo not drawn),,inconclusive: 8.47% [activator]
CCOc1ccc(NC(=S)N2CCC(C(=O)c3ccc(F)cc3)CC2)cc1,"inconclusive [activator, single point]",
Cc1cc2nc(/N=C(\N)NC(=O)N3c4ccccc4Sc4ccccc43)nc(C)c2cc1C,"inconclusive [activator, single point]",
O=C(NCS(=O)(=O)c1ccccc1)c1ccccc1,"inconclusive [activator, partial curve, poor fit]",
Cc1nc2ccc(S(=O)(=O)NC(C(=O)NCc3ccc(Cl)cc3)C(C)C)cc2s1 (stereo not drawn),inactive,

SMILES,Potency,growth rescue
Cc1cc(C)n(C(=O)c2ccccc2[N+](=O)[O-])n1,"inconclusive [activator, full curve]",
COc1ccc(C2(C)CC(C)(C)Nc3ccccc32)cc1 (stereo not drawn),"inconclusive [activator, partial curve, poor fit]",
COC(=O)Nc1ccc2c(c1)Nc1ccccc1CC2,"inconclusive [activator, partial curve, poor fit]",
O=C(Cn1c(=O)n(-c2ccccc2)c(=O)c2sc3ccccc3c21)NC1CCCC1,inactive,
O=C(c1ccccc1)N1CCCCC1CCN1CCCCC1 (stereo not drawn),inactive,
O=[N+]([O-])c1cccc(NC(=S)N2CCc3ccccc32)c1,"inconclusive [activator, single point]",
Cn1c(=O)n(C)c2cc(N3CCCCC3)c(NC(=O)c3c(F)cccc3F)cc21,inactive,
CCOC(=O)c1c(C)[nH]c(C)c1C(=O)COC(=O)Cc1n[nH]c(=O)c2ccccc12,inactive,
COCCNC(=O)c1cc2sccc2n1C,inactive,
CCOC(=O)c1cc(-c2cc3ccccc3o2)nc2c1c(=O)[nH]c(=O)n2CCOC,inactive,
Cc1ccc(NCc2cccn2-c2nnc(N3CCC(C(=O)NCc4ccc(F)cc4)CC3)s2)cc1,"inconclusive [activator, single point]",
CCn1c(SCC(=O)N2CCCC2)nc2c(c1=O)SC(C)C2 (stereo not drawn),inactive,
O=[N+]([O-])c1ccc(C(c2sc3nc(-c4ccco4)nn3c2O)N2CCC3(CC2)OCCO3)cc1 (stereo not drawn),inactive,
O=C(c1cnn2c(C(F)(F)F)cc(-c3ccco3)nc12)N1CCc2ccccc2C1,"inconclusive [activator, full curve, poor fit]",
c1ccc(Cc2ccc(OCCN3CCOCC3)cc2)cc1,inactive,
COc1ccc(NC(=O)C2CCCN2S(=O)(=O)c2ccc3c(c2)CCCC(=O)N3)cc1Cl (stereo not drawn),inactive,
COc1ccc(-n2nc(C(=O)c3cccs3)cc(-c3nc4ccccc4[nH]3)c2=N)cc1,"inconclusive [activator, full curve]",
CC1(OC(=O)C2CCCC2)C(=O)C=C2C=C(c3ccsc3)N(CC3CC3)C=C2C1=O (stereo not drawn),inactive,
COC(=O)c1cn(CCOc2ccccc2F)c2ccccc12,"inconclusive [activator, partial curve, poor fit]",
CCOc1ccccc1NC(=O)CCN1CCN(S(=O)(=O)c2ccc(Br)cc2)CC1,"inconclusive [activator, single point]",
Nc1ccccc1C(=O)NNc1ncc(C(F)(F)F)cc1Cl,"inconclusive [activator, partial curve]",
Cc1ccc(NC(=S)NC2CCCC2)c(C)c1,"inconclusive [activator, partial curve, poor fit]",
Cc1ccc(N2C(=O)C(CC(=O)Nc3ccccc3)N(CCC3=CCCCC3)C2=O)cc1 (stereo not drawn),inactive,
COc1ccc(C(=S)N2CCN(c3cccc(Cl)c3)CC2)c(OC)c1,"inconclusive [activator, single point]",
Cc1ccc(N(CC(O)Cn2c3ccccc3c3ccccc32)S(C)(=O)=O)cc1 (stereo not drawn),"inconclusive [activator, partial curve, poor fit]",

SMILES,Potency,growth rescue
COc1ccc(COc2ncnc3ccc(Br)cc23)cc1F,"inconclusive [activator, single point]",
CCS(=O)(=O)c1ccc(N=Nc2ccc(O)c3ncccc23)c(OC)c1,"inconclusive [activator, partial curve, poor fit]",
COc1cc(Cl)c(C)cc1NC(=O)COC(=O)C1CC1C (stereo not drawn),"inconclusive [activator, partial curve, poor fit]",
COc1ccc2ccc(O)c(CN3CCN(S(=O)(=O)c4cccc(C(F)(F)F)c4)CC3)c2c1,"inconclusive [activator, single point]",
Cc1c(Cl)cccc1NC(=O)NCCOCCn1c(=O)oc2ccccc21,inactive,
O=C(NCCc1cn[nH]c1)C1CCC(=O)N(CCc2cccc(F)c2)C1 (stereo not drawn),inactive,
COCCCNc1nc2ccccc2nc1NS(=O)(=O)c1cc(Cl)ccc1Cl,inactive,
N#C/C(=C\c1ccccc1C(F)(F)F)C(=O)Nc1ccccc1F,"inconclusive [activator, single point]",
CCOC(=O)c1[nH]c(C)c(C(=O)N2CCc3ccccc32)c1C,"inconclusive [activator, single point]",
O=C1CN(c2ccccc2)C(=S)N1C(=O)c1ccccc1,"inconclusive [activator, single point]",
COC(=O)Cn1c(=O)c2c(nc3n2CCCN3Cc2ccccc2)n(C)c1=O,inactive,
COc1cccc(CCNc2ncnc3c2nnn3C)c1,inactive,
CC(C)CC(=O)NC(=S)N(Cc1ccccc1)Cc1ccccc1,"inconclusive [activator, partial curve]",
CCCCNC(=S)N1CCC(Cc2ccccc2)CC1,active: 17.8 µM,
Cc1ccc(C(=O)Nc2nc(-c3ccccc3)c(-c3ccccc3)o2)cc1,"inconclusive [activator, single point]",
CCOc1ccc(N2C(=O)CC(SC(=NC)Nc3cccc(OC)c3)C2=O)cc1 (stereo not drawn),"inconclusive [activator, single point]",
Cc1c(Cl)cccc1N=C1SCCN1C(=O)CN1C(=O)NC2(CCCC2)C1=O,"inconclusive [activator, partial curve, poor fit]",
Cc1nn(C)c(Nc2ccc(Br)cc2)c1Br,"inconclusive [activator, single point]",
COc1ccc(/C(O)=C/C(=O)C(=O)NNC(=O)c2ccccc2)cc1,inactive,
Clc1ccc(-c2nnc(CSc3nnc(-c4cccs4)n3Cc3ccccc3)o2)cc1,inactive,
CN(C)C(=O)CSc1nnc2sc3ccccc3n12,inactive,
COCc1ccc(-c2c(-c3ccc(OC)cc3)oc(=O)c3cc(OC)c(OC)cc23)cc1,inactive,
C[C@@H]1CCCCCCCCC(=O)OCCN(C(=O)OC(C)(C)C)[C@H](C)CCCCCCCCC(=O)OCCN(C(=O)OC(C)(C)C)[C@H](C)CCCCCCCCC(=O)OCCN1C(=O)OC(C)(C)C,inactive,

# Reference: PubChem BioAssay AID1347071 (National Center for Advancing Translational Sciences (NCATS), 2019)
